Consider 91 compounds from PubChem BioAssay AID360 (National Center for Advancing Translational Sciences (NCATS), 2006).

Structures are written as SMILES. Among all 48,000 compounds or so, about 550 (1.1%) were called active. Not shown: some 4% with an inconclusive outcome. No stated cut-off is given here; in the data, active means potency below about 15 µM; inconclusive means mostly about 16 µM to 33 µM; inactive means weaker than that. The list shows a part of the results. Where only a bound is given, the exact number is not on record here.
Potency means the concentration at half of the fitted maximal effect.

The target of the assay is Lysosomal acid glucosylceramidase (Homo sapiens) (UniProt P04062). Put plainly: Glucocerebrosidase.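 Further: the screen sought inhibitors.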 To be noted: purified enzyme, resorufin glucoside fluorescence (screen aimed at inhibitors), 20 min. The essentials: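 Normal human glucocerebrosidase (0.2 nM final) was assayed with resorufin β-D-glucopyranoside (30 uM final) in 50mM citric acid/KH2PO4, 10mM sodium taurocholate, 0.01% tween-20, pH 5.9. Compounds were titrated; fluorescence (Ex 548, Em 600) read after 20 min at RT.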
Chain of UniProt P04062 (P04062 whole entry, looked up): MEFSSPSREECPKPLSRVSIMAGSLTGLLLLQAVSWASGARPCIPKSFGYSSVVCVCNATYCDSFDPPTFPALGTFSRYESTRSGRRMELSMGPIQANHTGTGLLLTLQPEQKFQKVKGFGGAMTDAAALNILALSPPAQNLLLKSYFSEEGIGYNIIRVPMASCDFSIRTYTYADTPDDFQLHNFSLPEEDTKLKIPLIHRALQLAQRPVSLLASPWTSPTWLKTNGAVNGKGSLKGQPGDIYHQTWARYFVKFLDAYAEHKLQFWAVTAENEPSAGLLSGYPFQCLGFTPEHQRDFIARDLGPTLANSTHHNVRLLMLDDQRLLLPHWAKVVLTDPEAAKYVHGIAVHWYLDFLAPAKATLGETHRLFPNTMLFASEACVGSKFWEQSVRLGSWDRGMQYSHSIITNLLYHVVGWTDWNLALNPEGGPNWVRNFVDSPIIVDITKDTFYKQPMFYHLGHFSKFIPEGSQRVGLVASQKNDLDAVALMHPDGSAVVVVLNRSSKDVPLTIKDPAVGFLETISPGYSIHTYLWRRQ
Regarding `O=C(Nc1cccnc1)C1(F)C(F)(F)C(F)(F)C(F)(F)C(F)(F)C1(F)F`, the Potency result is “inactive”.

Turning to `COc1ccccc1NC(=O)CNC(=O)c1ccccc1`, the Potency was inactive: > 76.9 µM.

Regarding `COC(=O)c1cn(NC(=O)C2COc3ccccc3O2)c(=O)c2ccccc12` (stereo unspecified), the Potency was inactive: > 76.9 µM.

`COc1ccc(-n2c(=O)c3ccccc3n(CC(=O)NC3CCCC3)c2=O)c(OC)c1`: the Potency was inactive: > 76.9 µM.

As to `O=C(NCC1CCCO1)c1nc2c(nnn2Cc2ccc(F)cc2)c(=O)[nH]1` (stereo unspecified), the Potency was inactive: > 76.9 µM.

Consider `N#Cc1c(-c2ccco2)nc(SCc2ccc(F)cc2)[nH]c1=O`, for which the Potency was inactive: > 76.9 µM.

Consider `Nc1nc(-c2cccnc2)nc(N2CCCCC2)n1`, for which the Potency is inactive: > 76.9 µM.

On to `CCc1nnc(NC(=O)C2CCCN2S(=O)(=O)c2ccc(F)cc2)s1` (stereo unspecified), for which the Potency is inactive: > 76.9 µM.

Turning to `O=C(CSc1nc2c(c(=O)n1-c1ccc(Br)cc1)SCC2)NCc1ccco1`, the Potency was inactive: > 76.9 µM.

Regarding `COCCn1c(SCC(=O)N2CCCC2)nnc1C(C)C`, the Potency was inactive: > 76.9 µM.

For the compound `O=C(CN1CCN(c2ccccc2)CC1)Nc1cccc(C(F)(F)F)c1`, the Potency was inactive: > 76.9 µM.

`O=C(O)c1cscn1`: the Potency is inactive: > 76.9 µM.

With `CCOC(=O)Cn1ncc2c(=O)oc3ccccc3c21`, the Potency was inactive: > 76.9 µM.

With `Cc1cnc(C(=O)OCC(=O)Nc2cc(Cl)cc(Cl)c2)cn1`, the Potency was inactive: > 76.9 µM.

As to `CCOC(=O)c1cc(NC(=O)NCc2ccco2)c(C)nc1C`, the Potency is inactive: > 76.9 µM.

For `Cc1ccc(C(=O)N2CCN(C(=O)c3ccc(C)c(C)c3)C(C)C2)cc1C` (stereo unspecified), the Potency was inactive: > 76.9 µM.

As to `CCN(CC)CCCNC1CCS(=O)(=O)C1` (stereo unspecified), the Potency was inactive: > 76.9 µM.

In the case of `CCCc1ccc(Oc2cn[nH]c2-c2ccc(O)c(C)c2O)cc1`, the Potency was inactive: > 76.9 µM.

Regarding `O=C1C(C=Nc2ccccc2O)=C(O)c2ccccc21`, the Potency is inactive: > 76.9 µM.

Take `O=C(CSc1nnc(CNC(=O)c2c(F)cccc2Cl)o1)c1ccccc1`: the Potency is inactive: > 76.9 µM.

As for `CSCC[C@H](NC(=O)OC(C)(C)C)c1nnc(SCC(N)=O)o1`, the Potency was inactive: > 76.9 µM.

On to `O=C(COC(=O)c1ccc[nH]c1=O)NCC1CCCO1` (stereo unspecified), for which the Potency is inactive: > 76.9 µM.

`CCOC(=O)c1nnn(-c2nonc2-n2cccc2)c1CN1CCCCC1`: the Potency result was “inactive”.

Consider `Cn1ncc(Cl)c1C(=O)N1CCc2ccccc21`, for which the Potency is inactive: > 76.9 µM.

`C=CCn1c(Cc2ccc(OC)cc2)nnc1SCc1nc2ccccc2c(=O)[nH]1`: the Potency was inactive: > 76.9 µM.

On to `N=c1c(S(=O)(=O)c2ccccc2)cc2c(=O)n3ccccc3nc2n1CC1CCCO1` (stereo unspecified), for which the Potency was inactive: > 76.9 µM.

For the compound `O=C(Nc1ccc2c(c1)CCC2)c1cnn2c1NC(c1ccco1)CC2C(F)(F)F` (stereo unspecified), the Potency was inactive: > 76.9 µM.

As to `Cc1ccc(S(=O)(=O)Cn2nnnc2C(C(C)C)N2CCN(C(=O)c3ccco3)CC2)cc1` (stereo unspecified), the Potency result was “inactive”.

Regarding `CCCn1c(=O)c2ccccc2n2c(SCC(=O)c3cc(C)n(CCOC)c3C)nnc12`, the Potency is inactive: > 76.9 µM.

On to `CCN(Cc1ccccc1)C(c1cc2cc(C)ccc2[nH]c1=O)c1nnnn1CCOC` (stereo unspecified), for which the Potency was inactive: > 76.9 µM.

Turning to `Cc1cc(C(=O)NCc2cccs2)cs1`, the Potency is inactive: > 76.9 µM.

For the compound `O=C(O)C1CC(=O)N(c2ccc(OCc3c(F)cccc3Cl)cc2)C1` (stereo unspecified), the Potency is inactive: > 76.9 µM.

Turning to `CCNc1c(N)c(=O)oc2ccccc12`, the Potency is inactive: > 76.9 µM.

With `Cc1c(C(=O)N2CCCCC2)oc2ccc(S(=O)(=O)N3CC(C)CC(C)C3)cc12` (stereo unspecified), the Potency is inactive: > 76.9 µM.

In the case of `Cc1nc2ccccc2nc1OCC(=O)NCc1ccc2c(c1)OCO2`, the Potency was inactive: > 76.9 µM.

For the compound `COc1ccc(CCNC(=O)Cn2cnc3c(nnn3Cc3ccc(C)cc3)c2=O)cc1OC`, the Potency was inactive: > 76.9 µM.

`CCOC(=O)c1ccc(CS(=O)c2ccc(Cl)cc2)o1` (stereo unspecified): the Potency is inactive: > 76.9 µM.

Consider `COCCCn1c(CCC(=O)O)ccc1-c1ccc(F)cc1`, for which the Potency is inactive: > 76.9 µM.

For the compound `Clc1ccccc1OCCn1ccnc1`, the Potency is inactive: > 76.9 µM.

`Cc1ccc(/C(O)=C2\C(=O)C(=O)N(c3cc(C)on3)C2c2cccc(Br)c2)cc1` (stereo unspecified): the Potency was inactive: > 76.9 µM.

Regarding `Cc1occc1-c1nnc(SCC(=O)N2CCc3ccccc32)o1`, the Potency was inactive: > 76.9 µM.

On to `COc1ccccc1CN(C)C(=O)C1COc2ccccc2O1` (stereo unspecified), for which the Potency was inactive: > 76.9 µM.

On to `COc1ccc(Cl)cc1N(CC(=O)Nc1ccccc1SC)S(C)(=O)=O`, for which the Potency is inactive: > 76.9 µM.

Consider `COc1ccc(N2C(=O)CC(NC3CC3)C2=O)cc1` (stereo unspecified), for which the Potency was inactive: > 76.9 µM.

Take `COc1cccc(CNn2cnnc2)c1OCc1ccccc1F`: the Potency was inactive: > 76.9 µM.

Turning to `Cn1c(N)c(C(=O)c2cc(-c3ccccn3)nc3ccccc23)c(=O)[nH]c1=O`, the Potency was inactive: > 76.9 µM.

Take `COc1ccc(CNC(=O)Cn2nc(C(F)(F)F)c3c2CCC3)cc1`: the Potency was inactive: > 76.9 µM.

Take `O=C(CN1CCN(c2ccccc2)CC1)Nc1ccc(-n2cnnn2)cc1`: the Potency is inactive: > 76.9 µM.

`COc1ccc(-c2nc(C#N)c(NC(C)c3ccccc3)o2)cc1OC` (stereo unspecified): the Potency was inactive: > 76.9 µM.

As to `Cc1ccc(CCNC(=O)c2nnn(-c3cccc(C)c3)c2N)cc1`, the Potency was inactive: > 76.9 µM.

As to `CSc1nnc(-c2ccc(S(=O)(=O)N3CCCC3)cc2)n1C`, the Potency is inactive: > 76.9 µM.

Take `COc1ccc(CCC(C(O)C(F)(F)F)S(=O)c2ccccc2)cc1` (stereo unspecified): the Potency was inactive: > 76.9 µM.

Regarding `Cc1cc(C)cc(NC(=O)CSc2nnc(-c3ccc(S(=O)(=O)N4CCCC4)cc3)o2)c1`, the Potency is inactive: > 76.9 µM.

`COc1ccc(C(=O)O)cc1S(=O)(=O)NCCCN1CCCC1=O`: the Potency is inactive: > 76.9 µM.

For the compound `Cc1ccc(SCC(=O)NCc2ccco2)cc1`, the Potency is inactive: > 76.9 µM.

On to `O=C(c1cccnc1Nc1ccc2c(c1)CCC2)N1CCOCC1`, for which the Potency was inactive: > 76.9 µM.

Consider `Cc1noc(C)c1COC(=O)C1CC(O)CN1S(=O)(=O)c1ccc(Cl)cc1` (stereo unspecified), for which the Potency was inactive: > 76.9 µM.

`O=C(O)COc1cccc2nsnc12`: the Potency is inactive: > 76.9 µM.

On to `CSc1ccc(Cl)c(C(=O)NCC(C)C)c1`, for which the Potency was inactive: > 76.9 µM.

As to `Cc1ccc(-n2c(SCC(=O)OC(C)C)nnc2-c2ccncc2)cc1`, the Potency is inactive: > 76.9 µM.

As for `Cc1ccc(CNc2nc3ccccc3s2)s1`, the Potency result was “inactive”.

In the case of `COc1ccc(S(=O)(=O)Nc2cccc(Cl)c2)cc1OC`, the Potency was inactive: > 76.9 µM.

`N#C/C(C(=O)c1ccccc1)=C1/SC=C(N)N1c1ccccc1`: the Potency was inactive: > 76.9 µM.

As to `Cc1oc2ccccc2c1-c1cn2c(n1)SCC2`, the Potency was inactive: > 76.9 µM.

In the case of `O=S(=O)(NCCOc1cccc2cccnc12)c1ccc(F)cc1`, the Potency is inactive: > 76.9 µM.

In the case of `CCn1c(CNC(=O)Cc2ccc(OC)cc2)nnc1SCC(=O)Nc1nccs1`, the Potency was inactive: > 76.9 µM.

As to `Cc1cc(NC(=O)CCC(=O)N(CC(=O)NC2CCCC2)c2ccc3c(c2)OCCO3)no1`, the Potency was inactive: > 76.9 µM.

In the case of `CCOc1ccc(S(=O)(=O)Nc2nc3ccccc3nc2N2CCN(C)CC2)cc1`, the Potency is inactive: > 76.9 µM.

For `CC(C)NC(=O)c1cc(=O)n(C)c(=O)n1C`, the Potency was inactive: > 76.9 µM.

For the compound `COc1ccc(-n2ncc3c(NCc4cccs4)ncnc32)cc1`, the Potency was inactive: > 76.9 µM.

Consider `Brc1cccc(-c2n[nH]c(-c3ccccc3)n2)c1`, for which the Potency is inactive: > 76.9 µM.

For `CCOc1cc(S(=O)(=O)NC2CC(C)(C)NC(C)(C)C2)ccc1F`, the Potency is inactive: > 76.9 µM.

`CN(CC(=O)Nc1ccc(F)c(F)c1)S(=O)(=O)c1cccc2nsnc12`: the Potency was inactive: > 76.9 µM.

Take `CC(=O)N(CC1CCCO1)C1(C(=O)NC2CCCC2)CCCCC1` (stereo unspecified): the Potency is inactive: > 76.9 µM.

As to `Cc1ccc2cc(CN(CCN3CCOCC3)Cc3nnnn3Cc3ccco3)c(=O)[nH]c2c1C`, the Potency is inactive: > 76.9 µM.

In the case of `COc1ccc(-n2c(NC(=O)c3ccco3)c(C#N)c3nc4ccccc4nc32)cc1`, the Potency is inactive: > 76.9 µM.

As for `COc1ccc2c(c1)CCc1c(C(=O)Nc3ccn(Cc4ccc(C)cc4)n3)noc1-2`, the Potency was inactive: > 76.9 µM.

For `COC(=O)c1ccc(NS(=O)(=O)N(C)C)cc1`, the Potency is inactive: > 76.9 µM.

With `CCOC(=O)c1sc(Nc2nc3c(OC)cccc3s2)nc1C`, the Potency entry was “inactive”.

As for `CCCc1nc2ccccc2c(C(=O)OCc2nnc(-c3cc(OC)c(OC)c(OC)c3)o2)c1CC`, the Potency was inactive: > 76.9 µM.

Regarding `COc1ccc(NS(=O)(=O)c2ccc(N)c(C(=O)O)c2)cc1`, the Potency is inactive: > 76.9 µM.

`Cc1ccc(-c2ccc(=O)n(CC(=O)Nc3cccc(C(=O)N4CCN(C)CC4)c3)n2)cc1`: the Potency is inactive: > 76.9 µM.

Regarding `COCCCn1c(SCC(=O)NC2CCCC2)nnc1-c1ccco1`, the Potency is inactive: > 76.9 µM.

For the compound `Cc1ccc(-n2nnnc2SCC(=O)c2c(N)n(CC(C)C)c(=O)n(C)c2=O)cc1`, the Potency is inactive: > 76.9 µM.

Consider `Cn1c(C(C#N)C(=O)Cc2cccc3ccccc23)nc2ccccc21` (stereo unspecified), for which the Potency is inactive: > 76.9 µM.

In the case of `COc1ccccc1Nc1ncc(C(=O)N2CCC(C(N)=O)CC2)c2ccccc12`, the Potency was inactive: > 76.9 µM.

In the case of `Cc1nnn(C23CC4CC(CC(C4)C2)C3)n1`, the Potency is inactive: > 76.9 µM.

As for `Cc1cc(N2C(=O)C3C4C=CC(C4)C3C2=O)no1` (stereo unspecified), the Potency was inactive: > 76.9 µM.

For the compound `O=C(COC(=O)c1cc(S(=O)(=O)N2CCCCC2)ccc1N1CCOCC1)NC1CCCCC1`, the Potency was inactive: > 76.9 µM.

On to `Cc1ccc2cc(CN(CC3CCCO3)S(=O)(=O)c3c(C)ccc4nsnc34)c(=O)[nH]c2c1` (stereo unspecified), for which the Potency is inactive: > 76.9 µM.

With `COc1ccccc1-c1c(C)nn2c(C)c(C(C)=O)cnc12`, the Potency is inactive: > 76.9 µM.
